Measured values published in publication PMC6673701, “Structure of Myosin VI/Tom1 complex reveals a cargo recognition mode of Myosin VI for tethering” (Nature Communications, 2019).
Where two headings read alike, the source gives them in different places. Results are given in words; binding and its absence hold for the method and conditions named. For part of these data: Binding seen in cells or lysates may run through a third protein. Some results given as binding are weak or reduced against the parent protein; the word gives no strength. Blank lines part the entries; values can stand above or below the molecule they belong to.

Amino acid sequences for entries named in this document (tags omitted). A change or cut given only in a name is not applied to a line headed by its entry. Chains listed by the source or under a name are the forms on record and can include a tag or linker. Residues count along the entry.
UniProt Q9UM54: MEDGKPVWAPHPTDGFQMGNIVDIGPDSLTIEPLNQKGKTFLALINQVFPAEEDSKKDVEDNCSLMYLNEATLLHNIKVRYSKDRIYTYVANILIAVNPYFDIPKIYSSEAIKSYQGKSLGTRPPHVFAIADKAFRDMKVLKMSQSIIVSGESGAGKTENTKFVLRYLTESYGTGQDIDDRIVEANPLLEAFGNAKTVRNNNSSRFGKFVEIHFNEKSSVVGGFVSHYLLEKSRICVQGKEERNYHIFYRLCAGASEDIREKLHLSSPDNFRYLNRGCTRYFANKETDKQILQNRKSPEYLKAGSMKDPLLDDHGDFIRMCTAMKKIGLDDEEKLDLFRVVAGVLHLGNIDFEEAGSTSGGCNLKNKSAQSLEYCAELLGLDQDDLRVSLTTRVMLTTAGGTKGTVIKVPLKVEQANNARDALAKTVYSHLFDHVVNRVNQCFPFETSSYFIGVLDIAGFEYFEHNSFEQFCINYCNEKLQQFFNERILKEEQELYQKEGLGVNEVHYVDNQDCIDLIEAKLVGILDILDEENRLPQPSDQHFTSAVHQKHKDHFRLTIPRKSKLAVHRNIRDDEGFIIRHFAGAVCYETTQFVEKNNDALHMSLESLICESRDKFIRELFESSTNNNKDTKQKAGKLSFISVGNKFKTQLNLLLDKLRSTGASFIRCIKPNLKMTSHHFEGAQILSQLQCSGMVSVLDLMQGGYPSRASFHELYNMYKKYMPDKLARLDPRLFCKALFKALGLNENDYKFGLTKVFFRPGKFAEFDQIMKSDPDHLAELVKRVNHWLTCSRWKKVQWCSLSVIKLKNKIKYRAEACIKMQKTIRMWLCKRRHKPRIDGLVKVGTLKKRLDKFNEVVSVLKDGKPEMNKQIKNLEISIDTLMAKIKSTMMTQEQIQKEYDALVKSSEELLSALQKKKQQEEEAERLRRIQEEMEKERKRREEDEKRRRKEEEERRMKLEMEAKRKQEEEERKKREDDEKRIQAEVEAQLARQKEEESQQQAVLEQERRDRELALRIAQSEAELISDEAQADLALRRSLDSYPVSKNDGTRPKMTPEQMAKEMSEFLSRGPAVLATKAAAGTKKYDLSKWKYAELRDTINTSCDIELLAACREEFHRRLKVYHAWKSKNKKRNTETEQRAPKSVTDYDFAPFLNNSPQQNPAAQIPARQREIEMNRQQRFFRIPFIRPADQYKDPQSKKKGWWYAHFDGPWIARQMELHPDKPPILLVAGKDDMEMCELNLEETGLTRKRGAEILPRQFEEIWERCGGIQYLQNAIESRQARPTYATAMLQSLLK
Myosin VI(1060–1285), purified recombinant: residues 1069-1294 of Q9UM54
C-terminal cargo-binding domain (CBD) of Myosin VI (residues 1157–1285): residues 1166-1294 of Q9UM54
Myosin VI globular cargo-binding domain (residues 1032–1285) (Q9UM54-1, form named): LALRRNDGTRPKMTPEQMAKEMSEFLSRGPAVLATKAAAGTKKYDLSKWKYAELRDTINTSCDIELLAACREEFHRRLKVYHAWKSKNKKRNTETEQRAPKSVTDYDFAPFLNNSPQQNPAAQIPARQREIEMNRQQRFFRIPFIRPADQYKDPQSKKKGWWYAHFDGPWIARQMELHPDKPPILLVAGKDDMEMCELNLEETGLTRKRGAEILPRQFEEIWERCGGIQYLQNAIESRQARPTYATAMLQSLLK
GFP-tagged Myosin VI(1060–1285) E1207R (Q9UM54-1, form named): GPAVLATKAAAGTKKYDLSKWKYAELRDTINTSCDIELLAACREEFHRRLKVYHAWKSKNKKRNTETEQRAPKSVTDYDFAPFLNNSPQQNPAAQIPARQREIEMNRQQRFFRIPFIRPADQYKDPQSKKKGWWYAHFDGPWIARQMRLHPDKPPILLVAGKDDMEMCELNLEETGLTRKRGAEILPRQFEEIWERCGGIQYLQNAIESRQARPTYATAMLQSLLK
GFP-tagged Myosin VI(1060–1285) W1193A (Q9UM54-1, form named): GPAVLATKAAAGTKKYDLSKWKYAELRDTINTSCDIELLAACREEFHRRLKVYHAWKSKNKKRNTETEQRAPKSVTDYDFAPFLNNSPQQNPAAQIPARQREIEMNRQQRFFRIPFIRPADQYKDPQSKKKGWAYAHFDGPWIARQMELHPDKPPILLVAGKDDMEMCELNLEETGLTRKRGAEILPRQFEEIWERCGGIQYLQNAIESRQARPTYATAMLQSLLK
C-terminal CBD of Myosin VI 1157–1285(W1193A) (Q9UM54-1, form named): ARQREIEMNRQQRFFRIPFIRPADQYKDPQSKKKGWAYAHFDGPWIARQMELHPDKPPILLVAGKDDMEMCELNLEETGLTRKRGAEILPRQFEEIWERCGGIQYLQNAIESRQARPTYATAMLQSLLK
C-terminal CBD of Myosin VI 1157–1285(E1207R) (Q9UM54-1, form named): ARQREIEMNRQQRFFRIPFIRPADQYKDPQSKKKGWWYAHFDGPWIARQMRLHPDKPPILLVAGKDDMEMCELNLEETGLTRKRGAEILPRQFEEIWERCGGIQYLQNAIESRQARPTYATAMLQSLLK
UniProt Q86VP1, residues 725-789: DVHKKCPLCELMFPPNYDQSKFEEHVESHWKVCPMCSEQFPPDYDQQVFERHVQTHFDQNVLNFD
UniProt Q96CV9: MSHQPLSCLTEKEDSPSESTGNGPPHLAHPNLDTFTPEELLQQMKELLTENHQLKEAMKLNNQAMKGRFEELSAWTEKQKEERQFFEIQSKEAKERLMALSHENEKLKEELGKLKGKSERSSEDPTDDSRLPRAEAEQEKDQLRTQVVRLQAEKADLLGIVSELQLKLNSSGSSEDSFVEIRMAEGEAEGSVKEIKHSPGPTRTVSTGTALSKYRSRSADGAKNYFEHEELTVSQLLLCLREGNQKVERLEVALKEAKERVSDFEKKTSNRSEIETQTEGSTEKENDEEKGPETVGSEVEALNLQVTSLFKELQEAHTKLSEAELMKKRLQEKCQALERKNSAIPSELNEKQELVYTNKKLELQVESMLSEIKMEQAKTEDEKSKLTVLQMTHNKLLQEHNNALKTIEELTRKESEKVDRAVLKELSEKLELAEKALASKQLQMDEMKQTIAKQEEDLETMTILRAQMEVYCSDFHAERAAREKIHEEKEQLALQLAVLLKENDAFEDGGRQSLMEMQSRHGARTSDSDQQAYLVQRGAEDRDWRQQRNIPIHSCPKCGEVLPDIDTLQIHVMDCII
UniProt Q8K3K8, residues 417-512: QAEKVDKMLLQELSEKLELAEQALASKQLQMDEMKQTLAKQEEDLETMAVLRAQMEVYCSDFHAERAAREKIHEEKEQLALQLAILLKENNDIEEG

Tests used:
[1] = target: GFP-tagged Myosin VI(1060–1285) (human) (UniProt Q9UM54); assay: co-IP; HEK293T co-transfected with GFP-tagged Myosin VI(1060–1285) and a Cherry-tagged partner; anti-GFP agarose beads, western blot
[2] = target: C-terminal cargo-binding domain (CBD) of Myosin VI (residues 1157–1285) (human) (UniProt Q9UM54); assay: ITC; 25 °C, 20 mM Tris pH 7.9, 100 mM NaCl, 1 mM DTT; 50 µM protein in the cell, 500 µM in the syringe; one-site binding model; both purified
[3] = target: Myosin VI(1060–1285), purified recombinant (human) (UniProt Q9UM54); assay: SEC; analytical gel filtration coupled with SDS-PAGE, purified proteins, in the presence of K63-linked or M1-linked di-ubiquitin; both purified
[4] = target: endogenous Myosin VI (human (endogenous in HEK293T)) (UniProt Q9UM54); assay: co-IP; endogenous proteins of HEK293T lysate; antibody to the tail region of Myosin VI, Protein G agarose; blots for Tom1, TAX1BP1, NDP52, Optineurin
[5] = target: Tom1 R451E mutant of the ternary-complex co-immunoprecipitation (Fig. 5c) (human) (UniProt O60784); assay: co-IP; HEK293T co-transfected with Tom1, Myosin VI(1060–1285) and an autophagy receptor (Fig. 5b, c); anti-GFP or anti-Flag agarose beads, western blot
[6] = target: Tom1 truncation mutant (residues 1–437) (human) (UniProt O60784); assay: as above
[7] = target: Tom1 L448E mutant of the ternary-complex co-immunoprecipitation (Fig. 5c) (human) (UniProt O60784); assay: as above
[8] = target: Tom1 wild type of the ternary-complex co-immunoprecipitations (Flag vector) (human) (UniProt O60784); assay: as above
[9] = target: Myosin VI globular cargo-binding domain (residues 1032–1285) (human) (UniProt Q9UM54); assay: SEC; analytical gel filtration of purified proteins, Superose 200 increase 10/300 GL, 20 mM Tris-HCl pH 7.9, 100 mM NaCl, 1 mM DTT; both purified
[10] = target: GFP-tagged Myosin VI(1060–1285) E1207R (human) (UniProt Q9UM54); assay: co-IP; HEK293T co-transfected with GFP-tagged Myosin VI(1060–1285) and a Cherry-tagged partner; anti-GFP agarose beads, western blot
[11] = target: GFP-tagged Myosin VI(1060–1285) W1193A (human) (UniProt Q9UM54); assay: as above
[12] = target: GFP-tagged Myosin VI(1060–1285) (human) (UniProt Q9UM54); assay: as above; remark: listed apart in the source
[13] = target: Tom1(437–463), Myosin VI-binding motif (human) (UniProt O60784); assay: SEC + SEC-MALS + AUC; analytical gel filtration, multi-angle light scattering (20 mM Tris-HCl pH 7.9, 100 mM NaCl, 1 mM DTT) and sedimentation velocity (20 °C) of each protein alone and of the complex; both purified
[14] = target: C-terminal CBD of Myosin VI 1157–1285(W1193A) (human) (UniProt Q9UM54); assay: ITC; 25 °C, 20 mM Tris pH 7.9, 100 mM NaCl, 1 mM DTT; 50 µM protein in the cell, 500 µM in the syringe; one-site binding model; both purified
[15] = target: C-terminal CBD of Myosin VI 1157–1285(E1207R) (human) (UniProt Q9UM54); assay: as above

Molecule: Cherry-tagged Tom1 L448E mutant (from UniProt O60784-2 1-493)
binding [1]: no binding

Molecule: Tom1(464–493) (from UniProt O60784-2 464-493) (domain or fragment)
binding [2]: no binding (tested: 50 µM in the cell, 500 µM in the syringe)

Molecule: Tom1(392–437) (from UniProt O60784-2 392-437) (domain or fragment)
binding [2]: no binding (tested: 50 µM in the cell, 500 µM in the syringe)

Molecule: TAX1BP1(725–789) (from UniProt Q86VP1 725-789) (domain or fragment)
binding [3]: binds

Molecule: endogenous Optineurin (from UniProt Q96CV9 1-577)
binding [4]: binds

Molecule: GFP-tagged Myosin VI(1060–1285) (from UniProt Q9UM54-1 1060-1285) (domain or fragment)
binding [5]: no binding | binding [6]: no binding | binding [7]: no binding | binding [8]: binds

Molecule: Optineurin(417–512) (from UniProt Q8K3K8 417-512) (domain or fragment)
binding [3]: binds weakly

Molecule: endogenous Tom1 (from UniProt O60784 1-492)
binding [4]: binds

Molecule: Optineurin expressed in transfected cells (pmCherry-C1) (from UniProt Q96CV9 1-577)
binding [1]: binds | binding [5]: no binding | binding [6]: no binding | binding [7]: no binding

B1: Tom1(392–463) (domain or fragment, human, UniProt O60784-2 392-463, looked up)
chain: TDGLAGALDARQQSTGAIPVTQACLMEDIEQWLSTDVGNDAEEPKGVTSEGKFDKFLEERAKAADRLPNLSS
notes: 15N-labelled in one NMR titration; source: E. coli BL21 (DE3), purified (Ni-NTA, SEC); not shown: thioredoxin, N-terminal, cleaved; His6, N-terminal, cleaved
binding [9]: binds

Molecule: GVTSEGKFDKFLEEEAKAADRLPNLSS (domain or fragment, UniProt O60784-2 437-463) [Tom1 437–463(R451E)]
binding [2]: no binding (tested: 50 µM in the cell, 500 µM in the syringe)

B4: Tom1(437–463), Myosin VI-binding motif (domain or fragment, human, UniProt O60784-2 437-463, looked up)
chain: GVTSEGKFDKFLEERAKAADRLPNLSS
notes: monomer by light scattering and ultracentrifugation; also called Tom1 MBM; source: E. coli BL21 (DE3), purified (Ni-NTA, SEC); not shown: thioredoxin, N-terminal, cleaved; His6, N-terminal, cleaved
binding [3]: binds | binding [13]: no binding | binding [14]: no binding (tested: 50 µM in the cell, 500 µM in the syringe) | binding [15]: no binding (tested: 50 µM in the cell, 500 µM in the syringe)

B7: Tom1(215–493) (domain or fragment, human, UniProt O60784-2 215-493, looked up)
chain: EQIGKLRSELEMVSGNVRVMSEMLTELVPTQAEPADLELLQELNRTCRAMQQRVLELIPQIANEQLTEELLIVNDNLNNVFLRHERFERFRTGQTTKAPSEAEPAADLIDMGPDPAATGNLSSQLAGMNLGSSSVRAGLQSLEASGRLEDEFDMFALTRGSSLADQRKEVKYEAPQATDGLAGALDARQQSTGAIPVTQACLMEDIEQWLSTDVGNDAEEPKGVTSEGKFDKFLEERAKAADRLPNLSSPSAEGPPGPPSGPAPRKKTQEKDDDMLFAL
notes: source: E. coli BL21 (DE3), purified (Ni-NTA, SEC); not shown: thioredoxin, N-terminal, cleaved; His6, N-terminal, cleaved
binding [9]: binds

Molecule: GVTSEGKFDKFEEERAKAADRLPNLSS (domain or fragment, UniProt O60784-2 437-463) [Tom1 437–463(L448E)]
binding [2]: no binding (tested: 50 µM in the cell, 500 µM in the syringe)

The next lines start with results.

binding [1]: no binding
Molecule: Cherry-tagged Tom1 R451E mutant (from UniProt O60784-2 1-493)

binding [9]: no binding
Molecule: Tom1(215–392) (from UniProt O60784-2 215-392) (domain or fragment)
binding [2]: no binding (tested: 50 µM in the cell, 500 µM in the syringe)

binding [10]: no binding | binding [1]: binds | binding [11]: no binding
Molecule: Cherry-tagged Tom1 full length (from UniProt O60784-2 1-493)

binding [5]: no binding | binding [6]: no binding | binding [7]: no binding | binding [12]: binds
B2: NDP52 expressed in transfected cells (pmCherry-C1) (protein, UniProt Q13137 1-446)
chain: MEETIKDPPTSAVLLDHCHFSQVIFNSVEKFYIPGGDVTCHYTFTQHFIPRRKDWIGIFRVGWKTTREYYTFMWVTLPIDLNNKSAKQQEVQFKAYYLPKDDEYYQFCYVDEDGVVRGASIPFQFRPENEEDILVVTTQGEVEEIEQHNKELCKENQELKDSCISLQKQNSDMQAELQKKQEELETLQSINKKLELKVKEQKDYWETELLQLKEQNQKMSSENEKMGIRVDQLQAQLSTQEKEMEKLVQGDQDKTEQLEQLKKENDHLFLSLTEQRKDQKKLEQTVEQMKQNETTAMKKQQELMDENFDLSKRLSENEIICNALQRQKERLEGENDLLKRENSRLLSYMGLDFNSLPYQVPTSDEGGARQNPGLAYGNPYSGIQESSSPSPLSIKKCPICKADDICDHTLEQQQMQPLCFNCPICDKIFPATEKQIFEDHVFCHSL

binding [4]: binds
B3: endogenous NDP52 (protein, UniProt Q13137 1-446)
chain: MEETIKDPPTSAVLLDHCHFSQVIFNSVEKFYIPGGDVTCHYTFTQHFIPRRKDWIGIFRVGWKTTREYYTFMWVTLPIDLNNKSAKQQEVQFKAYYLPKDDEYYQFCYVDEDGVVRGASIPFQFRPENEEDILVVTTQGEVEEIEQHNKELCKENQELKDSCISLQKQNSDMQAELQKKQEELETLQSINKKLELKVKEQKDYWETELLQLKEQNQKMSSENEKMGIRVDQLQAQLSTQEKEMEKLVQGDQDKTEQLEQLKKENDHLFLSLTEQRKDQKKLEQTVEQMKQNETTAMKKQQELMDENFDLSKRLSENEIICNALQRQKERLEGENDLLKRENSRLLSYMGLDFNSLPYQVPTSDEGGARQNPGLAYGNPYSGIQESSSPSPLSIKKCPICKADDICDHTLEQQQMQPLCFNCPICDKIFPATEKQIFEDHVFCHSL

binding [3]: binds
B5: NDP52(365–446) (domain or fragment, UniProt Q13137 365-446)
chain: EGGARQNPGLAYGNPYSGIQESSSPSPLSIKKCPICKADDICDHTLEQQQMQPLCFNCPICDKIFPATEKQIFEDHVFCHSL

binding [9]: binds
B6: Tom1(392–493) (domain or fragment, human, UniProt O60784-2 392-493, looked up)
chain: TDGLAGALDARQQSTGAIPVTQACLMEDIEQWLSTDVGNDAEEPKGVTSEGKFDKFLEERAKAADRLPNLSSPSAEGPPGPPSGPAPRKKTQEKDDDMLFAL
notes: as for B1
